Assay results from the supplement of paper PMC10441789.
The other results are listed elsewhere or left out. Antibody binding of pooled human sera (four to six donors per pool; dilution not stated) to peptides of the Trypanosoma cruzi antigen TSSA on microarrays. Quantile-normalised fluorescence in arbitrary units, mean of duplicate arrays; higher = more binding. No active / inactive call. The uninfected pools are read here as the healthy donors of the same country. The strongest signals lie near the top of the scale (about 60,000).

Experiments:
Experiment in all cases: antibody binding signal (normalised fluorescence) (arbitrary fluorescence units); higher = stronger serum antibody binding to peptide
[1] = system: pooled sera of chronic Chagas disease patients, Argentina
Protocol: (§1)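 Microarray of 15-residue peptides over residues 30-55 of Trypanosoma cruzi TSSAII, each with 1 to 10 substitutions at naturally variable positions, probed with one serum pool per country.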

[2] = system: pooled sera of chronic Chagas disease patients, Bolivia
Protocol: as §1

[3] = system: pooled sera of chronic Chagas disease patients, Brazil
Protocol: as §1

[4] = system: pooled sera of chronic Chagas disease patients, Colombia
Protocol: as §1

[5] = system: pooled sera of chronic Chagas disease patients, Mexico
Protocol: as §1

[6] = system: pooled sera of chronic Chagas disease patients, USA
Protocol: as §1

[7] = system: pooled sera of uninfected people, Argentina
Protocol: as §1

[8] = system: pooled sera of uninfected people, Bolivia
Protocol: as §1

[9] = system: pooled sera of uninfected people, Brazil
Protocol: as §1

[10] = system: pooled sera of uninfected people, Colombia
Protocol: as §1

[11] = system: pooled sera of uninfected people, Mexico
Protocol: as §1

[12] = system: pooled sera of uninfected people, USA
Protocol: as §1

Sequence	antibody binding signal [1]	antibody binding signal [2]	antibody binding signal [3]	antibody binding signal [4]	antibody binding signal [5]	antibody binding signal [6]	antibody binding signal [7]	antibody binding signal [8]	antibody binding signal [9]	antibody binding signal [10]	antibody binding signal [11]	antibody binding signal [12]
TPPSGTDKKAAAGGT	17200	1930	28700	7010	39100	2510	294	200	1330	213	1200	172
GTENKPATGEAPSQS	52100	45400	49600	1810	3860	44800	1190	1620	443	152	235	169
PPSGKDKKAATGGAP	1440	264	578	835	31100	1230	254	379	89.4	355	82.9	158
SGKENKPATGETPSQ	36300	26600	36400	1230	2130	23400	8610	4310	163	328	2110	220
TPPSGTEKKTATGEA	28900	16700	25400	256	8200	1540	621	199	363	108	116	118
SGKDNKPATGGTPSP	944	270	9140	965	954	1360	495	645	203	439	170	128
SGTDKKTAAGGTPSP	1510	197	583	17100	720	2030	172	135	687	253	411	220
GKENKTATGEAPSQP	23600	10600	40400	16800	13600	20700	531	168	139	254	232	150
GKDKKAATGEAPSQP	12600	4220	32100	1290	1570	18700	219	85.8	117	159	72.8	92.7
STPPSGTDKKPATGE	41400	44700	45100	10600	50200	19900	1110	641	470	412	4500	309
KDKKAATGGAPSPPG	406	184	164	408	545	641	226	87.8	79.5	144	96.8	85.1
SGKENKTAAGGAPSP	2920	515	18400	10600	4330	20700	6050	986	159	305	408	212
ENKPAAGGTPSQSGA	370	2450	1530	1410	531	463	339	745	1400	414	329	292
NKAAAGGTPSPSGAS	396	315	5960	4490	595	1500	572	811	1700	489	290	1230
GKDKKTATGGTPSPP	490	302	205	1380	739	1510	169	82.4	110	119	72.1	101
TENKPAAGEAPSPSG	50600	4260	28000	311	547	16200	218	317	204	80.1	119	182
GTDKKPAAGGTPSQP	434	249	1130	8720	549	899	212	322	1200	185	413	222
DKKPATGETPSPSGA	29000	24700	28800	141	144	22300	201	401	265	213	1480	477
TPPSGTDNKPATGGA	49000	40800	48700	7690	30000	23000	1850	1290	921	449	995	524
KEKKTAAGGTPSQSG	213	228	164	3170	186	1490	203	95.8	262	111	151	108
GKDKKPATGGAPSQP	538	549	7710	613	857	1220	195	258	84.8	109	78.7	90.4
GTDNKTATGETPSPS	528	1210	31100	320	224	7630	147	543	1300	166	430	2470
TDNKAAAGGAPSQSG	290	365	600	3110	400	318	550	371	262	249	230	231
GKDNKTAAGETPSPS	2990	387	1980	5890	5740	4430	311	288	134	258	213	1610
ISTPPSGKENKAAAG	29000	5340	5970	457	3830	1820	2260	952	154	810	147	443

Sequence	antibody binding signal [1]	antibody binding signal [2]	antibody binding signal [3]	antibody binding signal [4]	antibody binding signal [5]	antibody binding signal [6]	antibody binding signal [7]	antibody binding signal [8]	antibody binding signal [9]	antibody binding signal [10]	antibody binding signal [11]	antibody binding signal [12]
GTENKTAAGETPSQP	30200	4570	31600	2110	3040	3390	189	384	203	232	193	114
GTDKKTAAGGAPSPP	179	277	198	7300	566	917	145	191	118	277	260	145
GKDNKTAAGGTPSQS	632	204	202	2950	562	1560	203	107	211	148	309	129
GKENKPAAGETPSPS	7140	1530	16600	9720	8670	13800	680	466	157	144	422	1810
DKKPAAGEAPSQSGA	1060	7710	22700	145	234	15500	92.7	161	141	168	81.6	89.1
KDKKTAAGEAPSQSG	218	1960	477	243	201	2800	131	103	99	253	80.5	108
SGTDKKTAAGETPSQ	251	718	2470	2790	373	1120	169	288	282	764	303	144
SGTDKKTATGEAPSQ	11700	25000	20100	1250	459	19600	200	115	548	154	224	110
PSGKENKPATGEAPS	51600	44700	53000	3660	4460	43400	7750	4550	422	568	653	369
DNKAATGGTPSQSGA	572	1090	467	511	510	279	341	168	944	201	443	141
GTDKKPATGEAPSQS	47700	44700	49900	6580	479	40700	945	685	316	271	697	167
GTEKKTAAGGAPSPS	359	309	197	7940	1100	964	222	420	159	210	140	153
PPSGTDKKAATGETP	4600	9140	21100	4240	13400	10200	591	337	424	690	2260	244
KPAAGETPSQSGASS	237	2760	11700	116	187	513	166	296	147	166	421	153
TPPSGTDNKAAAGGA	31200	39300	47300	3920	5780	10200	1610	767	2180	312	362	2050
EKKAAAGETPSQPGA	1000	750	31200	712	297	4700	177	1320	149	663	376	1100
NKTAAGEAPSPSGAS	252	1580	5750	301	716	6740	483	840	714	330	234	907
TENKPATGGTPSPPG	47300	1930	3120	254	1120	676	377	765	524	339	239	212
TEKKAAAGETPSQSG	719	484	2430	436	447	2590	111	273	346	719	454	214
PSGKENKPAAGGTPS	8560	1540	11700	10100	11800	10100	9290	3400	249	302	343	193
DNKAATGEAPSPPGA	22000	37200	36500	139	159	24500	138	111	216	121	120	112
TEKKTATGGAPSQPG	1840	273	1730	4020	1250	1680	339	295	175	133	353	215
DNKTATGGTPSPSGA	489	1170	733	817	392	630	301	183	646	448	330	193
TEKKPATGETPSQSG	32800	26300	32500	314	309	21200	220	414	386	187	1830	399
PPSGKENKTATGETP	12600	7100	4360	1440	1800	6280	1800	1640	249	913	265	277
